Scores whose standard error is large were omitted. Two further conditions of the source, in which the scores hardly spread, are not listed. Names with del lack the residues named; names with ins carry added residues between the positions named. For some of these results: The concentration of ogerin is not given here.
B1: GPR68, Q15743 (parent)
chain: MGNITADNSSMSCTIDHTIHQTLAPVVYVTVLVVGFPANCLSLYFGYLQIKARNELGVYLCNLTVADLFYICSLPFWLQYVLQHDNWSHGDLSCQVCGILLYENIYISVGFLCCISVDRYLAVAHPFRFHQFRTLKAAVGVSVVIWAKELLTSIYFLMHEEVIEDENQHRVCFEHYPIQAWQRAINYYRFLVGFLFPICLLLASYQGILRAVRRSHGTQKSRKDQIQRLVLSTVVIFLACFLPYHVLLLVRSVWEASCDFAKGVFNAYHFSLLLTSFNCVADPVLYCFVSETTHRDLARLRGACLAFLTCSRTGRAREAYPLGAPEASGKSGAQGEEPELLTKLHPAFQTPNSPGSGGFPTGRLA

Columns and labels:
[1] = variants of: B1; experiment: cAMP reporter score (Enrich2 score, wild type = 0); higher = more signal; HEK293T, FACS bins
[2] = variants of: B1; experiment: surface expression score (Enrich2 score, wild type = 0); higher = more signal; HEK293T, FACS bins

Q: What does the source list for MGNITADNSSMSCTIDHTIHQTLAPVVYVTVLVVGFPANCLSLYFGYLQIKARNELGVYLCNLTVADLFYICSLPFWLQYVLQHDNWSHADLSCQVCGILLYENIYISVGFLCCISVDRYLAVAHPFRFHQFRTLKAAVGVSVVIWAKELLTSIYFLMHEEVIEDENQHRVCFEHYPIQAWQRAINYYRFLVGFLFPICLLLASYQGILRAVRRSHGTQKSRKDQIQRLVLSTVVIFLACFLPYHVLLLVRSVWEASCDFAKGVFNAYHFSLLLTSFNCVADPVLYCFVSETTHRDLARLRGACLAFLTCSRTGRAREAYPLGAPEASGKSGAQGEEPELLTKLHPAFQTPNSPGSGGFPTGRLA [G90A]?
A: cAMP reporter score ([1]; pH 5.5): -0.202; cAMP reporter score ([1]; pH 6): -0.493; cAMP reporter score ([1]; pH 6, modulator: ogerin): -0.395; cAMP reporter score ([1]; pH 6.5, modulator: ogerin): -0.662; surface expression score [2]: 0.754

Q: Which cAMP reporter score ([1]; pH 5.5) does the source give for MGNITADNSSMSCTIDHTIHQTLAPVVYVTVLVVGFPANCLSLYFGYLQIKARNELGVYLCNLTVADLFYICSLPFWLQYVLQHDNWSHCDLSCQVCGILLYENIYISVGFLCCISVDRYLAVAHPFRFHQFRTLKAAVGVSVVIWAKELLTSIYFLMHEEVIEDENQHRVCFEHYPIQAWQRAINYYRFLVGFLFPICLLLASYQGILRAVRRSHGTQKSRKDQIQRLVLSTVVIFLACFLPYHVLLLVRSVWEASCDFAKGVFNAYHFSLLLTSFNCVADPVLYCFVSETTHRDLARLRGACLAFLTCSRTGRAREAYPLGAPEASGKSGAQGEEPELLTKLHPAFQTPNSPGSGGFPTGRLA [G90C] here?
A: Its cAMP reporter score is -0.19.

Q: What about the cAMP reporter score ([1]; pH 6) of the same variant?
A: The cAMP reporter score was -0.714.

Q: And the cAMP reporter score ([1]; pH 6, modulator: ogerin)?
A: The cAMP reporter score was -0.088.

Q: What about the cAMP reporter score ([1]; pH 6.5, modulator: ogerin) of the same variant?
A: The cAMP reporter score was -0.715.

Q: What about the surface expression score [2] of the same variant?
A: Its surface expression score is 1.18.

Q: Which cAMP reporter score ([1]; pH 5.5) does the source give for H89_G90insG here?
A: Its cAMP reporter score is -0.116.

Q: What about the cAMP reporter score ([1]; pH 6) of the same variant?
A: Its cAMP reporter score is 0.006.

Q: And the cAMP reporter score ([1]; pH 6, modulator: ogerin)?
A: The cAMP reporter score was -0.838.
